From the supplement of paper PMC10126150
Sequences with one replicate were seen in a single cluster, so their values are uncertain.

Test system: ATP
Experiment: switch fluorescence ratio, 500 uM ATP over buffer (Cy3 cluster intensity, sum of 5 cycles each) (fold (ratio)); higher = stronger signal-on switching upon ATP binding; sequences stand for … in TCGTCGGCAGCGTCAGATGTGTATAAGAGACAGTTTTTTTTTTTTTTTTTTTTTTTTT…TC
Conditions: aptamer strand: ATP DNA aptamer (quencher-CACCTGGGGGAGTATTGCGGAGGAAGG + anchor), 100 nM annealed; ATP concentration: 500 uM; one replicate
How it was run: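 Values give the fluorescence ratio for each switch-domain sequence, averaged from per-cluster ratios of summed target-cycle to summed buffer-cycle Cy3 intensity. The Cy3-labelled switching-strand clusters sat on a modified Illumina MiSeq flow-cell, were annealed to 100 nM quencher-labelled ATP aptamer, and were imaged in selection buffer, then after 15 min with 500 uM ATP at 22 °C. Five cycles ran with NaOH stripping and re-annealing between them, and clusters outside 100-1000 RFU were excluded.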
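Further: ATP exposure 15 min at 22 °C before imaging.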

Sequence | switch fluorescence ratio
GCGACTGTGT | 1.04
ACTAATGATT | 1.05
ATTGTTAAT | 1.03
ATTTCGGGCT | 1.02
TGATTTTCAA | 1.07
TAGACGAGCT | 1.03
AGCTCATATG | 0.949
ACGCGATAAT | 1.78
GGGCAATCTC | 3.81
CTGAACCTTA | 1.24
AACTATTAGG | 0.975
GGGACTGGAG | 0.97
TCTTTCTGGA | 0.968
TTCAGAGACG | 1.02
GTTAAAGGTG | 1.3
GTGAATAATC | 1.02
GGGTCGTGCC | 0.954
TATTGTTGGT | 1
CGAGCTGTGG | 1.06
CAGGCCTATT | 1.03
GATGATCTGC | 1.04
TGCTAAAAGG | 0.989
AAGTATCCAC | 1.05

Sequence | switch fluorescence ratio
GGCTCCGTGG | 1.11
TTGTGCTGCT | 1.01
TATGCGTGGT | 1.03
CATCAAGTT | 1.04
AGGCGCCAGC | 0.953
TTGTCGTACC | 1.08
GGGTATTGGC | 0.99
ACATGGCCA | 1.03
CACGTCTTAA | 0.98
ACGGCTGCTC | 1.09
TTACGTAGG | 1.05
CGCAGTAGGT | 1.1
GGGCGCTGT | 0.984
TTTACACG | 1.02
GTCGGCTTGG | 0.928
TTGATATGAA | 0.959
TGTGTCTGAG | 0.998
GCGATGCCCG | 0.921
TGTGGAGATT | 1.15
AAGCTTTGGC | 0.966
TGCTATGCAT | 1.09
AAAATAGAGT | 1
CGGAGTTAG | 1.07

Sequence | switch fluorescence ratio
GGCCGAGGTA | 1.06
CAATATTAAT | 1.03
ACGGGTCGCT | 0.994
ATGTTTTTT | 1.03
GCCATGTAGA | 1.03
ATGAGACTTA | 0.978
CGTTTGACAT | 1.01
ACCACTAACC | 1.12
CCGGGGTCAG | 1.04
GCCACCAGCT | 1.03
TGATCGTGTA | 0.947
TGAGAATGTC | 1.05
GAGATGGTCC | 1.04
AGTATGAAGA | 0.999
TTCGCTCATG | 1.01
ACACGGTGAG | 1
GCACTCACCG | 1.28
AAAAACCTA | 1.07
TCCGAATCCG | 1.07
ACGTTCGCTT | 1.08
TCCGATGTG | 1.17
CAACAGGAG | 1.06
CACAGTGGGA | 1.03

Sequence | switch fluorescence ratio
AAGAAGCCTT | 0.966
GGGGATAGGA | 0.998
AATGATCCTT | 1.06
ATCTCCCTAG | 1.13
AGGCTACAAC | 1.1
AGCATAAGAT | 0.967
TGCCGGATTG | 1.01
GCATCGATAA | 0.991
CCTAAGTAGT | 1.03
GAGGGGTACG | 1.06
ATACGTTGGG | 0.976
CGTGAACGAG | 0.978
TGGTCTGAT | 0.979
TCGTTCGGTA | 1.01
CAATAAGTTG | 1.09
CCAAGTTTCC | 1.18
AAGGGCTACA | 0.997
TGTAATGGAG | 0.991
ACATCCACGG | 1.43
TGCGGTCGTA | 0.961
CATTTGTCAC | 1.04
ACTCGTCAAA | 1.04
AAATGTGGTA | 0.97

Sequence | switch fluorescence ratio
GCGAGCACGC | 1.02
TGAAAACAAA | 1.03
CAAAAAGGCC | 1.02
GTCCGTACAT | 0.998
CCTCCGGCG | 4.37
GCTTTGAACT | 0.968
GGTCGTATTT | 0.977
TGGATGTGCT | 1.04
GCACGCCCAT | 1.22
TGGTAGCGCT | 0.996
TAGACGAATC | 0.981
GACCAAGGGG | 1.15
TATGTCTCAA | 1.01
TAGACATCTC | 0.969
TTATCGCCTA | 0.998
ACCGTCCTTC | 1.09
TGGAACTAGA | 0.993
AGCAGGAGGC | 1.05
CGGTATGGA | 0.996
GAGGGATAGT | 0.943
TCGATAAGTT | 1.02
TTGGAGCCTC | 1.06
TGTGTCTGGG | 0.992

Sequence | switch fluorescence ratio
CATGTTGCTA | 0.989
GTGAGCACTC | 1.07
AATCGCCTGC | 0.989
GTAATCGGC | 0.971
TCTAACCTTT | 1.11
TATCATAACG | 1.02
CGTAGACAAT | 1.43
ACAAGCAAA | 1.47
CCCAACGACC | 2.27
GGGTCATCGT | 0.968
GGTGATGGA | 1.07
TACGGTAATT | 1.09
CCTATGATGA | 1.07
ATCGTCGGTC | 0.938
GCGTTTATAT | 1.02
TTGGGCATGT | 1
CGGGTGTAAT | 1.04
AGCCTGCAG | 1.02
CTGAGTACGG | 1.06
CTTTCACTCG | 1.02
GGAGCTACCT | 1.2
TAGCAAGTCG | 1.03
CTGACAACCT | 2.23

Sequence | switch fluorescence ratio
AAGGACGTCG | 0.975
CACGCACGCC | 1.8
AGCTGAGTGC | 0.986
ACCGTACGGG | 0.994
AGATCGGAGG | 1.01
TCCAGAGTCA | 1.08
CACTTCTTAC | 1.14
GTGGTACGCT | 0.965
GGATGGGCGG | 0.987
CCCCGGTATA | 2.63
GTGGTCAAGA | 1.04
TGACTATATT | 1.06
TTATGGTACG | 1.05
TACCAAGCTG | 1.13
CTTGCGATTG | 1.04
AAGAGGACTC | 0.935
TTCATGTCAG | 1.05
CGCGAGGGAG | 1.02
CCCGGTCGCC | 0.983
